The list shows a part of the results. Rule as the data show it: active = 3.2 or more and inactive = the rest. Most of these values are background signal.
Target: SHP2 C-SH2 domain E139D
Experiment: enrichment score (SH2-bound / input frequency) (ratio); bacterial display of known human phosphotyrosine sites (pTyr-Var adds point mutants) read by sequencing; higher = stronger binding; tyrosines were phosphorylated by kinases first
Details: peptide library: pTyr-Var
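Also: displayed peptides selected on beads carrying the immobilized SH2 domain, with library peptides lacking any tyrosine serving as negative controls.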

Enrichment score, inactive:
MHDKEYYSVHN [MET_Y1234_Y1230H] 0.841
MHDKEYFSVHN [MET_Y1234_Y1230H_YF] 0.608
MFDKEYFSVHN [MET_Y1234_YF] 1.09
CDKEFYSVHNK [MET_Y1235_Y1230C_YF] 0.586
DDKEYYSVHNK [MET_Y1235_Y1230D] 0.675
DDKEFYSVHNK [MET_Y1235_Y1230D_YF] 0.813
HDKEYYSVHNK [MET_Y1235_Y1230H] 1.09
SELVRYDARVH [MET_Y971] 0.639
GQECEYPPTQD [METAP2_Y137] 0.577
GQECKYPPTQD [METAP2_Y137_E136K] 0.64
RGKLFYQEVPA [METTL11B_Y76_A72G] 1.24
SHNKFYMLVAH [MFSD8_Y134_R139H_YF] 2.66
MSIWPYLQKID [MFSD8_Y63] 2.06
GAVGNYSGGLA [MGMT_Y158] 0.634
RVQQIYSDSDL [MIB1_Y376] 0.857
QVQQIYSDSDL [MIB1_Y376_R371Q] 0.697
QELRRYLKSGV [MICA_Y194] 0.507
LGRTRYQHVTG [MIPEP_Y510] 0.572
EGWQVYRLGAR [MISP_Y95] 0.668

Target: SHP2 C-SH2 domain wild-type
Experiment: as above
Details: peptide library: pTyr-Var

Enrichment score, inactive:
MHDKEYYSVHN [MET_Y1234_Y1230H] 0.659
MHDKEYFSVHN [MET_Y1234_Y1230H_YF] 0.692
MFDKEYFSVHN [MET_Y1234_YF] 0.951
CDKEFYSVHNK [MET_Y1235_Y1230C_YF] 0.667
DDKEYYSVHNK [MET_Y1235_Y1230D] 0.661
DDKEFYSVHNK [MET_Y1235_Y1230D_YF] 0.494
HDKEYYSVHNK [MET_Y1235_Y1230H] 0.664
SELVRYDARVH [MET_Y971] 0.503
GQECEYPPTQD [METAP2_Y137] 0.638
GQECKYPPTQD [METAP2_Y137_E136K] 0.52
RGKLFYQEVPA [METTL11B_Y76_A72G] 1.14
SHNKFYMLVAH [MFSD8_Y134_R139H_YF] 2.67
MSIWPYLQKID [MFSD8_Y63] 1.79
GAVGNYSGGLA [MGMT_Y158] 0.716
RVQQIYSDSDL [MIB1_Y376] 0.899
QVQQIYSDSDL [MIB1_Y376_R371Q] 0.863
QELRRYLKSGV [MICA_Y194] 0.505
LGRTRYQHVTG [MIPEP_Y510] 0.343
EGWQVYRLGAR [MISP_Y95] 0.703

Target: SHP2 N-SH2 domain L43F
Experiment: as above
Details: peptide library: pTyr-Var

Enrichment score, inactive:
MHDKEYYSVHN [MET_Y1234_Y1230H] 0.665
MHDKEYFSVHN [MET_Y1234_Y1230H_YF] 0.655
MFDKEYFSVHN [MET_Y1234_YF] 1.01
CDKEFYSVHNK [MET_Y1235_Y1230C_YF] 0.838
DDKEYYSVHNK [MET_Y1235_Y1230D] 0.502
DDKEFYSVHNK [MET_Y1235_Y1230D_YF] 0.769
HDKEYYSVHNK [MET_Y1235_Y1230H] 0.371
SELVRYDARVH [MET_Y971] 0.552
GQECEYPPTQD [METAP2_Y137] 0.495
GQECKYPPTQD [METAP2_Y137_E136K] 0.575
RGKLFYQEVPA [METTL11B_Y76_A72G] 1.17
SHNKFYMLVAH [MFSD8_Y134_R139H_YF] 2.2
MSIWPYLQKID [MFSD8_Y63] 1.82
GAVGNYSGGLA [MGMT_Y158] 0.665
RVQQIYSDSDL [MIB1_Y376] 0.863
QVQQIYSDSDL [MIB1_Y376_R371Q] 0.775
QELRRYLKSGV [MICA_Y194] 0.479
LGRTRYQHVTG [MIPEP_Y510] 0.526
EGWQVYRLGAR [MISP_Y95] 0.6

Target: SHP2 N-SH2 domain T42A
Experiment: as above
Details: peptide library: pTyr-Var

Enrichment score, inactive:
MHDKEYYSVHN [MET_Y1234_Y1230H] 0.495
MHDKEYFSVHN [MET_Y1234_Y1230H_YF] 0.602
MFDKEYFSVHN [MET_Y1234_YF] 0.761
CDKEFYSVHNK [MET_Y1235_Y1230C_YF] 0.57
DDKEYYSVHNK [MET_Y1235_Y1230D] 0.655
DDKEFYSVHNK [MET_Y1235_Y1230D_YF] 0.56
HDKEYYSVHNK [MET_Y1235_Y1230H] 0.515
SELVRYDARVH [MET_Y971] 0.594
GQECEYPPTQD [METAP2_Y137] 0.411
GQECKYPPTQD [METAP2_Y137_E136K] 0.55
RGKLFYQEVPA [METTL11B_Y76_A72G] 1.24
SHNKFYMLVAH [MFSD8_Y134_R139H_YF] 2.31
MSIWPYLQKID [MFSD8_Y63] 2.09
GAVGNYSGGLA [MGMT_Y158] 0.391
RVQQIYSDSDL [MIB1_Y376] 0.568
QVQQIYSDSDL [MIB1_Y376_R371Q] 0.789
QELRRYLKSGV [MICA_Y194] 0.576
LGRTRYQHVTG [MIPEP_Y510] 0.445
EGWQVYRLGAR [MISP_Y95] 0.617

Target: SHP2 N-SH2 domain T52S
Experiment: as above
Details: peptide library: pTyr-Var

Enrichment score, inactive:
MHDKEYYSVHN [MET_Y1234_Y1230H] 0.61
MHDKEYFSVHN [MET_Y1234_Y1230H_YF] 0.64
MFDKEYFSVHN [MET_Y1234_YF] 1.01
CDKEFYSVHNK [MET_Y1235_Y1230C_YF] 0.692
DDKEYYSVHNK [MET_Y1235_Y1230D] 0.659
DDKEFYSVHNK [MET_Y1235_Y1230D_YF] 0.689
HDKEYYSVHNK [MET_Y1235_Y1230H] 0.757
SELVRYDARVH [MET_Y971] 0.544
GQECEYPPTQD [METAP2_Y137] 0.535
GQECKYPPTQD [METAP2_Y137_E136K] 0.6
RGKLFYQEVPA [METTL11B_Y76_A72G] 0.973
SHNKFYMLVAH [MFSD8_Y134_R139H_YF] 2.5
MSIWPYLQKID [MFSD8_Y63] 2.18
GAVGNYSGGLA [MGMT_Y158] 0.567
RVQQIYSDSDL [MIB1_Y376] 0.785
QVQQIYSDSDL [MIB1_Y376_R371Q] 0.806
QELRRYLKSGV [MICA_Y194] 0.434
LGRTRYQHVTG [MIPEP_Y510] 0.465
EGWQVYRLGAR [MISP_Y95] 0.487

Target: SHP2 N-SH2 domain wild-type
Experiment: as above
Details: peptide library: pTyr-Var

Enrichment score, inactive:
MHDKEYYSVHN [MET_Y1234_Y1230H] 0.56
MHDKEYFSVHN [MET_Y1234_Y1230H_YF] 0.845
MFDKEYFSVHN [MET_Y1234_YF] 0.995
CDKEFYSVHNK [MET_Y1235_Y1230C_YF] 0.63
DDKEYYSVHNK [MET_Y1235_Y1230D] 0.741
DDKEFYSVHNK [MET_Y1235_Y1230D_YF] 0.768
HDKEYYSVHNK [MET_Y1235_Y1230H] 0.979
SELVRYDARVH [MET_Y971] 0.582
GQECEYPPTQD [METAP2_Y137] 0.71
GQECKYPPTQD [METAP2_Y137_E136K] 0.714
RGKLFYQEVPA [METTL11B_Y76_A72G] 0.985
SHNKFYMLVAH [MFSD8_Y134_R139H_YF] 2.53
MSIWPYLQKID [MFSD8_Y63] 1.58
GAVGNYSGGLA [MGMT_Y158] 0.584
RVQQIYSDSDL [MIB1_Y376] 1.3
QVQQIYSDSDL [MIB1_Y376_R371Q] 0.762
QELRRYLKSGV [MICA_Y194] 0.635
LGRTRYQHVTG [MIPEP_Y510] 0.475
EGWQVYRLGAR [MISP_Y95] 0.86
